In PubChem BioAssay (NCI):
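Growth conditions: 96-well plates. Treatment: test compound, 48 hours, 5 concentrations. Analysis: linear interpolation between bracketing concentrations; unreached endpoints set to highest concentration. GI50: concentration for 50% inhibition of growth.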 Not every entry of the source has a single result; some have several. Only these are listed. There may be further records. For some of these results: A record mostly stands for its own series of concentrations, not given here; some values may only mark the edge of a range. A tag in brackets gives the origin of a value. A, B and so on number the origins entry by entry. For some of these results: Values that stand side by side repeat one measurement in other runs, samples, wells, individuals or studies.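 At the TGI there is no net growth.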

Legend:
Assay in all cases: NCI tumour cell line growth inhibition, 48 h
SK-MEL-5 melanoma = tested on: SK-MEL-5 melanoma
K-562 leukemia = tested on: K-562 leukemia
OVCAR-4 ovarian = tested on: OVCAR-4 ovarian
OVCAR-3 ovarian = tested on: OVCAR-3 ovarian
UACC-257 melanoma = tested on: UACC-257 melanoma
SNB-75 CNS = tested on: SNB-75 CNS
PC-3 prostate = tested on: PC-3 prostate
IGROV1 ovarian = tested on: IGROV1 ovarian
HCT-15 colon = tested on: HCT-15 colon
OVCAR-8 ovarian = tested on: OVCAR-8 ovarian
MDA-MB-435 = tested on: MDA-MB-435
MALME-3M melanoma = tested on: MALME-3M melanoma
BT-549 breast = tested on: BT-549 breast
SF-295 CNS = tested on: SF-295 CNS
ACHN renal = tested on: ACHN renal
HOP-92 NSCLC = tested on: HOP-92 NSCLC
NCI-H460 lung = tested on: NCI-H460 lung
SF-268 CNS = tested on: SF-268 CNS
RPMI-8226 leukemia = tested on: RPMI-8226 leukemia
SR leukemia = tested on: SR leukemia
TK-10 renal = tested on: TK-10 renal
MDA-N = tested on: MDA-N
786-0 renal = tested on: 786-0 renal
NCI-H522 lung = tested on: NCI-H522 lung
CCRF-CEM leukemia = tested on: CCRF-CEM leukemia
MDA-MB-231 breast = tested on: MDA-MB-231 breast
M14 melanoma = tested on: M14 melanoma
UO-31 renal = tested on: UO-31 renal

## Nc1ncnc2c(C3OC(CO)C(O)C3O)nsc12 (centres undefined)
SK-MEL-5 melanoma
  GI50: 46.8 nM [sample A, 1 test] and 30.6 nM [sample A, mean of 2 tests] and 30.7 µM [sample B, mean of 2 tests]
  TGI: 357 nM [sample A, 1 test] and 227 nM [sample A, mean of 2 tests] and > 100 µM [sample B, mean of 2 tests]
K-562 leukemia
  GI50: 4.46 nM [sample A, 1 test] and 3.82 µM [sample B, mean of 2 tests]
  TGI: 20.5 nM [sample A, 1 test] and 1.09 µM [sample A, mean of 2 tests] and > 26.3 µM [sample B, mean of 2 tests]
OVCAR-4 ovarian
  GI50: 53.1 nM [sample A, 1 test] and < 13.7 nM [sample A, mean of 2 tests] and 7.52 µM [sample B, mean of 2 tests]
  TGI: 94.2 nM [sample A, mean of 2 tests] and > 93.9 µM [sample B, mean of 2 tests]
OVCAR-3 ovarian
  GI50: 28 nM [sample A, 1 test] and < 11 nM [sample A, mean of 2 tests] and 10.6 µM [sample B, mean of 2 tests]
  TGI: 178 nM [sample A, 1 test] and 40.3 nM [sample A, mean of 2 tests] and > 81.8 µM [sample B, mean of 2 tests]
UACC-257 melanoma
  GI50: 49.4 nM [sample A, 1 test] and < 19 nM [sample A, mean of 2 tests] and 45.7 µM [sample B, mean of 2 tests]
  TGI: 391 nM [sample A, 1 test] and 869 nM [sample A, mean of 2 tests] and > 100 µM [sample B, mean of 2 tests]
SNB-75 CNS
  GI50: 18 nM [sample A, 1 test] and < 11.8 nM [sample A, mean of 2 tests] and 6.63 µM [sample B, mean of 2 tests]
  TGI: 75.1 nM [sample A, 1 test] and < 31.3 nM [sample A, mean of 2 tests] and 53.7 µM [sample B, mean of 2 tests]
PC-3 prostate
  TGI: 43 nM [sample A, mean of 2 tests] and 93.4 µM [sample B, 1 test]
IGROV1 ovarian
  GI50: 19.5 nM [sample A, 1 test] and < 12.1 nM [sample A, mean of 2 tests] and 7.92 µM [sample B, mean of 2 tests]
  TGI: 114 nM [sample A, 1 test] and 2.28 µM [sample A, mean of 2 tests] and > 94.4 µM [sample B, mean of 2 tests]
HCT-15 colon
  GI50: 13.7 nM [sample A, 1 test] and 4.9 µM [sample B, mean of 2 tests]
  TGI: 933 nM [sample A, mean of 2 tests] and > 86.9 µM [sample B, mean of 2 tests]
OVCAR-8 ovarian
  GI50: 18.3 nM [sample A, 1 test] and 6.44 µM [sample B, mean of 2 tests]
  TGI: 514 nM [sample A, 1 test] and 1.01 µM [sample A, mean of 2 tests] and > 100 µM [sample B, mean of 2 tests]
MDA-MB-435
  GI50: 27.9 nM [sample A, 1 test] and < 11 nM [sample A, mean of 2 tests] and 8.71 µM [sample B, mean of 2 tests]
  TGI: 502 nM [sample A, 1 test] and 38.1 nM [sample A, mean of 2 tests] and > 83.1 µM [sample B, mean of 2 tests]
MALME-3M melanoma
  GI50: 124 nM [sample A, 1 test] and 33.8 nM [sample A, mean of 2 tests] and 39.3 µM [sample B, mean of 2 tests]
  TGI: 481 nM [sample A, mean of 2 tests] and > 100 µM [sample B, mean of 2 tests]
BT-549 breast
  GI50: < 10.5 nM [sample A, mean of 2 tests] and 8.9 µM [sample B, 1 test]
  TGI: 1.08 µM [sample A, mean of 2 tests] and > 100 µM [sample B, 1 test]
SF-295 CNS
  GI50: 32.4 nM [sample A, 1 test] and 29.8 nM [sample A, mean of 2 tests] and 31 µM [sample B, mean of 2 tests]
  TGI: 296 nM [sample A, 1 test] and > 100 µM [sample A, mean of 2 tests] and 98.9 µM [sample B, mean of 2 tests]
ACHN renal
  GI50: 19.6 nM [sample A, 1 test] and 7.52 µM [sample B, mean of 2 tests]
  TGI: 98.2 nM [sample A, 1 test] and > 100 µM [sample B, mean of 2 tests]
HOP-92 NSCLC
  GI50: 49.3 nM [sample A, 1 test] and < 12 nM [sample A, mean of 2 tests] and 8.12 µM [sample B, mean of 2 tests]
  TGI: 834 nM [sample A, mean of 2 tests] and 75.2 µM [sample B, mean of 2 tests]
NCI-H460 lung
  GI50: < 12.1 nM [sample A, mean of 2 tests] and 5.66 µM [sample B, 1 test]
SF-268 CNS
  GI50: 27.2 nM [sample A, mean of 2 tests] and 29.3 µM [sample B, mean of 2 tests]
RPMI-8226 leukemia
  GI50: 18.9 nM [sample A, 1 test] and 3.45 µM [sample B, mean of 2 tests]
  TGI: 194 nM [sample A, mean of 2 tests] and > 29.6 µM [sample B, mean of 2 tests]
SR leukemia
  GI50: 36.8 nM [sample A, 1 test] and 509 nM [sample B, mean of 2 tests]
  TGI: < 19.6 nM [sample A, mean of 2 tests] and > 58.9 µM [sample B, mean of 2 tests]
TK-10 renal
  GI50: 28 nM [sample A, 1 test] and < 10.5 nM [sample A, mean of 2 tests] and 10.2 µM [sample B, mean of 2 tests]
  TGI: 110 nM [sample A, mean of 2 tests] and > 62.3 µM [sample B, mean of 2 tests]
MDA-N
  GI50: < 16.3 nM [sample A, mean of 2 tests] and 9.92 µM [sample B, 1 test]
  TGI: 182 nM [sample A, mean of 2 tests] and > 100 µM [sample B, 1 test]
786-0 renal
  GI50: 23.7 nM [sample A, 1 test] and < 12 nM [sample A, mean of 2 tests] and 8.4 µM [sample B, mean of 2 tests]
NCI-H522 lung
  GI50: 28 nM [sample A, 1 test] and < 15.6 nM [sample A, mean of 2 tests] and 20.7 µM [sample B, mean of 2 tests]
  TGI: 127 nM [sample A, 1 test] and 289 nM [sample A, mean of 2 tests] and > 79.1 µM [sample B, mean of 2 tests]
CCRF-CEM leukemia
  GI50: 21.6 nM [sample A, 1 test] and 26.5 µM [sample B, 1 test]
MDA-MB-231 breast
  GI50: 19.4 nM [sample A, 1 test] and < 11 nM [sample A, mean of 2 tests] and 7.17 µM [sample B, mean of 2 tests]
  TGI: 210 nM [sample A, 1 test] and > 36.3 µM [sample A, mean of 2 tests] and 78.5 µM [sample B, mean of 2 tests]
M14 melanoma
  GI50: 10.4 nM [sample A, 1 test] and 3.38 µM [sample B, mean of 2 tests]
UO-31 renal
  GI50: 15.8 nM [sample A, 1 test] and 3.16 µM [sample B, mean of 2 tests]
